# Measured values as given in US8551981B2, “Furo[3,2-d]pyrimidine compounds” (AbbVie Inc., priority 2010, dated 2013).
# Biological target: Syk catalytic domain (aa 356-635 with a C-terminal His-tag) (Homo sapiens, UniProt P43405)
# Experiment: In vitro Syk kinase activity by trFRET (Syk catalytic domain)
# [1] = Syk catalytic domain (aa 356-635), trFRET, 0.001 mM ATP, read-out: Syk IC50
# [2] = Syk IC50, Syk catalytic domain (aa 356-635), trFRET, 0.001 mM ATP
Structure (SMILES),IC50 [2],"IC50 (Syk IC50, class symbols A-D)",also measured
CC1(C)Oc2ccc(Nc3nc(N4CCC(CNCC(F)F)CC4)c4occc4n3)cc2NC1=O [B.5.14],–,–,IC50 [1]: 100 to 1000 nM
O=c1[nH]c2ccc(Nc3nc(NC4CC4)c4occc4n3)cc2o1 [B.5.19],100 to 1000 nM,–,–
NS(=O)(=O)c1ccc(Nc2nc(NC3CC3)c3occc3n2)cc1 [B.1.2],100 to 1000 nM,–,–
c1cc2nc(Nc3ccc(N4CCOCC4)cc3)nc(NC3CC3)c2o1 [B.5.18],100 to 1000 nM,–,–
NCC1CCN(c2nc(Nc3ccc4cn[nH]c4c3)nc3ccoc23)CC1 [C.1.9],–,< 100 nM,–
c1cc2nc(Nc3ccc4c(c3)CCNC4)nc(NC3CC3)c2o1 [C.1.26],–,100 to 1000 nM,–
CS(=O)(=O)N1CCN(c2nc(Nc3ccc(S(N)(=O)=O)cc3)nc3ccoc23)CC1 [B.2.8],1000 to 10000 nM,–,–
CC(NCC(F)F)C1CCN(c2nc(Nc3ccc4c(c3)NC(=O)C(C)(C)O4)nc3ccoc23)CC1 (stereo not drawn) [B.5.89],–,–,IC50 [1]: 100 to 1000 nM
CC1(C)Oc2ccc(Nc3nc(N4CCC(CNCCF)CC4)c4occc4n3)cc2NC1=O [B.5.76],–,–,IC50 [1]: < 100 nM
FC(F)(F)CNc1nc(Nc2ccc(N3CCOCC3)c(Cl)c2)nc2ccoc12 [B.5.13],< 100 nM,–,–
c1cc2nc(Nc3ccc(N4CCOCC4)nc3)nc(NC3CC3)c2o1 [B.5.30],100 to 1000 nM,–,–
Cn1ncc2ccc(Nc3nc(NC4CC4)c4occc4n3)cc21 [B.5.12],100 to 1000 nM,–,–
CC1(C)Oc2ccc(Nc3nc(NC4(CO)CC4)c4occc4n3)cc2NC1=O [B.5.38],–,–,IC50 [1]: 100 to 1000 nM
Clc1cc(Nc2nc(NCC3CCNCC3)c3occc3n2)ccc1N1CCOCC1 [C.1.10],–,100 to 1000 nM,–
NS(=O)(=O)c1ccc(Nc2nc(N3CCC(CO)CC3)c3occc3n2)cc1 [B.2.6],1000 to 10000 nM,–,–
CC1(CNc2nc(Nc3ccc4c(c3)NC(=O)C(C)(C)O4)nc3ccoc23)COC1 [B.5.64],–,–,IC50 [1]: 100 to 1000 nM
c1nc2ccc(Nc3nc(NC4CC4)c4occc4n3)cc2[nH]1 [C.1.24],–,100 to 1000 nM,–
Cn1ncc2cc(Nc3nc(N4CCC(CN)CC4)c4occc4n3)ccc21 [C.1.18],–,< 100 nM,–
FC(F)CNCC1CCN(c2nc(Nc3ccc4cn[nH]c4c3)nc3ccoc23)CC1 [C.1.14],–,< 100 nM,–
CC(=O)Nc1cccc(Nc2nc(NC3CC3)c3occc3n2)c1 [B.5.23],100 to 1000 nM,–,–
O=C1Cc2ccc(Nc3nc(NC4CC4)c4occc4n3)cc2N1 [B.5.28],100 to 1000 nM,–,–
CS(=O)(=O)N1CCN(c2ccc(Nc3nc(NC4CC4)c4occc4n3)cc2)CC1 [B.5.120],< 100 nM,–,–
NCC1CCN(c2nc(Nc3ccc(N4CCOCC4)c(Cl)c3)nc3ccoc23)CC1 [C.1.13],–,< 100 nM,–
CC1(C)Oc2ccc(Nc3nc(N4CCC(O)CC4)c4occc4n3)cc2NC1=O [B.5.133],–,–,IC50 [1]: < 100 nM
CC1(C)Oc2ccc(Nc3nc(N4CCC(CCO)CC4)c4occc4n3)cc2NC1=O [B.5.124],–,–,IC50 [1]: 100 to 1000 nM
"c1ccc(CNc2nc(Nc3cc(C4CC4)[nH]n3)c3occc3n2)cc1 [Example #2, N^2-Benzyl-N^4-(5-cyclopropyl-1H-pyrazol-3-yl)furo[3,2-d]pyrimidine-2,4-diamine]",100 to 1000 nM,–,–
CCCNC(=O)c1ccc(Nc2nc(NC3CC3)c3occc3n2)cc1 [B.1.3],100 to 1000 nM,–,–

Structure (SMILES),IC50 [2],"IC50 (Syk IC50, class symbols A-D)",also measured
CC1(C)Oc2ccc(Nc3nc(N[C@@H]4[C@H](C(N)=O)[C@H]5C=C[C@@H]4C5)c4occc4n3)cc2NC1=O [B.5.129],–,–,IC50 [1]: < 100 nM
Fc1cc(Nc2nc(N3CCC(CNCC(F)F)CC3)c3occc3n2)ccc1N1CCOCC1 [B.5.91],100 to 1000 nM,–,–
CCCC(=O)Nc1ccc(Nc2nc(NC3CCC3)c3occc3n2)cc1 [B.5.3],1000 to 10000 nM,–,–
O=C1NS(=O)(=O)c2cc(Nc3nc(NC4CC4)c4occc4n3)ccc21 [B.1.8],100 to 1000 nM,–,–
CC(C)Nc1nc(Nc2ccc3c(c2)NC(=O)C(C)(C)O3)nc2ccoc12 [B.5.59],–,–,IC50 [1]: 100 to 1000 nM
CC(C)(C#N)c1ccc(Nc2nc(NC3CC3)c3occc3n2)cc1 [B.5.42],< 100 nM,–,–
COCCCNS(=O)(=O)c1ccc(Nc2nc(N3CCC(CNCC(F)F)CC3)c3occc3n2)cc1 [B.5.74],100 to 1000 nM,–,–
c1cc(-c2ccc(Nc3nc(NC4CC4)c4occc4n3)cc2)ccn1 [B.5.136],100 to 1000 nM,–,–
Clc1cc(Nc2nc(NC3CC3)c3occc3n2)ccc1N1CCOCC1 [B.1.1],< 100 nM,–,–
CC(=O)N1CCN(c2ccc(Nc3nc(N4CCC(CN)CC4)c4occc4n3)cc2)CC1 [C.1.4],–,< 100 nM,–
CC(C)Oc1ccc(Nc2nc(NC3CC3)c3occc3n2)cc1 [B.5.43],100 to 1000 nM,–,–
c1cc2nc(Nc3ccc(N4CCNCC4)cc3)nc(NC3CC3)c2o1 [C.1.11],–,100 to 1000 nM,–
"CC1(C)Oc2ccc(Nc3nc(NC4CC4)c4occc4n3)cc2NC1=O [Example #10, 6-(4-(Cyclopropylamino)furo[3,2-d]pyrimidin-2-ylamino)-2,2-dimethyl-2H-benzo[b][1,4]oxazin-3(4H)-one]",–,–,IC50 [1]: < 100 nM
CC1(C)C(=O)Nc2cc(Nc3nc(N4CCC(CNCCS(C)(=O)=O)CC4)c4occc4n3)ccc21 [B.5.68],< 100 nM,–,–
CC1(C)C(=O)Nc2cc(Nc3nc(N4CCC(CNCC(F)F)C4)c4occc4n3)ccc21 (stereo not drawn) [B.5.99 A],100 to 1000 nM,–,–
CC1(C)Oc2ccc(Nc3nc(N4CCC(CN)CC4)c4occc4n3)cc2NC1=O [C.1.6],–,< 100 nM,–
CC1(C)Cc2ccc(Nc3nc(NC4CC4)c4occc4n3)cc2NC1=O [B.5.41],< 100 nM,–,–
Cc1cc2ccc(Nc3nc(N4CCC(CNCC(F)F)CC4)c4occc4n3)cc2[nH]c1=O [B.5.87],100 to 1000 nM,–,–
NC(=O)C1CCCN(c2nc(Nc3ccc(S(N)(=O)=O)cc3)nc3ccoc23)C1 (stereo not drawn) [B.2.4],100 to 1000 nM,–,–
CC1(C)CNc2cc(Nc3nc(NC4CC4)c4occc4n3)ccc2O1 [B.5.49],100 to 1000 nM,–,–
CC(C)CNc1nc(Nc2ccc(C(C)(C)C#N)cc2)nc2ccoc12 [B.5.119],100 to 1000 nM,–,–
CC1(C)Cc2ccc(Nc3nc(N4CCC(CNCC(F)F)CC4)c4occc4n3)cc2NC1=O [B.5.86],< 100 nM,–,–
CCCNc1nc(Nc2ccc3c(C)n[nH]c3c2)nc2ccoc12 [B.5.112],100 to 1000 nM,–,–
CC1(C)Oc2ccc(Nc3nc(N4CCC(O)(CO)CC4)c4occc4n3)cc2NC1=O [B.5.125],–,–,IC50 [1]: 100 to 1000 nM
CC1(C)CCc2cc(Nc3nc(NC4CC4)c4occc4n3)ccc2O1 [B.5.51],100 to 1000 nM,–,–
CS(=O)(=O)CCNCC1CCN(c2nc(Nc3ccc4cn[nH]c4c3)nc3ccoc23)CC1 [C.1.21],–,100 to 1000 nM,–
CC1(C)Oc2ccc(Nc3nc(N4CCCC(C(N)=O)C4)c4occc4n3)cc2NC1=O (stereo not drawn) [B.5.78],–,–,IC50 [1]: 100 to 1000 nM

# Continued, in another order:
IC50 [2],"IC50 (Syk IC50, class symbols A-D)",Structure (SMILES),also measured
< 100 nM,–,"CC1(CN)CCN(c2nc(Nc3ccc4cn[nH]c4c3)nc3ccoc23)CC1 [Example #12, 4-(4-(Aminomethyl)-4-methylpiperidin-1-yl)-N-(1H-indazol-6-yl)furo[3,2-d]pyrimidin-2-amine]",–
–,100 to 1000 nM,Cc1n[nH]c2cc(Nc3nc(N[C@@H]4CC[C@H](N)C4)c4occc4n3)ccc12 [C.1.27],–
< 100 nM,–,"CN(C)C(=O)c1n[nH]c2cc(Nc3nc(NC4CC4)c4occc4n3)ccc12 [J.1, 6-(4-(Cyclopropylamino)furo[3,2-d]pyrimidin-2-ylamino)-N,N-dimethyl-1H-indazole-3-carboxamide]",–
–,< 100 nM,Cc1cc(Nc2nc(N3CCC4(CCNC4)CC3)c3occc3n2)ccc1N1CCOCC1 [C.1.46],–
–,< 100 nM,CC1(C)Oc2ccc(Nc3nc(N4CCC(CN)(CC5CC5)CC4)c4occc4n3)cc2NC1=O [C.1.66],–
–,< 100 nM,Cc1cc(Nc2nc(N3CCC4(CCCNC4)CC3)c3occc3n2)ccc1N1CCOCC1 [C.1.42],–
–,< 100 nM,Cc1n[nH]c2cc(Nc3nc(N4CCC(CNCC(F)F)CC4)c4occc4n3)ccc12 [C.1.54],–
–,< 100 nM,Cc1n[nH]c2cc(Nc3nc(N[C@@H]4[C@H](C(N)=O)[C@H]5C=C[C@@H]4C5)c4occc4n3)ccc12 [C.1.52],–
–,< 100 nM,CNCC1CCN(c2nc(Nc3ccc4c(cnn4C)c3)nc3ccoc23)CC1 [C.1.49],–
–,< 100 nM,CCC1(CN)CCN(c2nc(Nc3ccc4c(c3)NC(=O)C(C)(C)O4)nc3ccoc23)CC1 [C.1.65],–
–,< 100 nM,Cc1n[nH]c2cc(Nc3nc(N4CCCC(N)CC4)c4occc4n3)ccc12 (stereo not drawn) [C.1.29],–
1000 to 10000 nM,–,CC(=O)NCC1CCN(c2nc(Nc3ccc(S(N)(=O)=O)cc3)nc3ccoc23)CC1 [E.1.1.1],–
100 to 1000 nM,–,Cc1n[nH]c2cc(Nc3nc(N4CCC(CNC5CCOCC5)CC4)c4occc4n3)ccc12 [J.1.10],–
–,< 100 nM,CC1(CN)CCN(c2nc(Nc3ccc4c(c3)NC(=O)C4(C)C)nc3ccoc23)CC1 [C.1.32],–
–,< 100 nM,Cc1cc(=O)[nH]c2cc(Nc3nc(N4CCC(CN)CC4)c4occc4n3)ccc12 [C.1.70],–
–,< 100 nM,CNCC1CCN(c2nc(Nc3ccc4c(C)n[nH]c4c3)nc3ccoc23)CC1 [C.1.48],–
–,< 100 nM,CC1(C)Oc2ccc(Nc3nc(N4CCC(CN)(CN)CC4)c4occc4n3)cc2NC1=O [C.1.67],–
1000 to 10000 nM,–,NCC1(F)CCN(c2nc(Nc3ccc4cn[nH]c4c3)nc3ccoc23)CC1 [J.1.13],–
100 to 1000 nM,–,Cc1n[nH]c2cc(Nc3nc(N4CCC(CNC5CCS(=O)(=O)CC5)CC4)c4occc4n3)ccc12 [J.1.9],–
100 to 1000 nM,–,Cc1n[nH]c2cc(Nc3nc(NCc4cccnc4)c4occc4n3)ccc12 [J.1.12],–
–,100 to 1000 nM,CNCC1CCN(c2nc(Nc3ccc4c(c3)NC(=O)C(C)(C)O4)nc3ccoc23)C1 (stereo not drawn) [C.1.53],–
100 to 1000 nM,–,"C=CCNc1nc(Nc2ccc(S(C)(=O)=O)cc2)nc2ccoc12 [Example #1, N^4-Allyl-N^2-(4-(methylsulfonyl)phenyl)furo[3,2-d]pyrimidine-2,4-diamine]",–
–,100 to 1000 nM,Cc1n[nH]c2cc(Nc3nc(N4CCCC(NCC(F)F)CC4)c4occc4n3)ccc12 (stereo not drawn) [C.1.73],–
–,< 100 nM,NCC1CCN(c2nc(Nc3ccc4ccc(=O)[nH]c4c3)nc3ccoc23)CC1 [C.1.63],–
100 to 1000 nM,–,"Cc1n[nH]c2cc(Nc3nc(N4CCC(/C(N)=N/O)CC4)c4occc4n3)ccc12 [Example #4, (Z)—N′-Hydroxy-1-(2-(3-methyl-1H-indazol-6-ylamino)furo[3,2-d]pyrimidin-4-yl)piperidine-4-carboximidamide]",–
–,< 100 nM,COc1cc(Nc2nc(N3CCC4(CCCNC4)CC3)c3occc3n2)ccc1N1CCOCC1 [C.1.39],–
–,< 100 nM,CC1(C)Oc2ccc(Nc3nc(N4CCC5(CCCNC5)CC4)c4occc4n3)cc2NC1=O [C.1.59],–

# Read-outs that look alike come from different tables or passages of the source.
